Experimental data taken from a collection of fitness landscapes (doi:10.1016/j.celrep.2020.107928).
The full ranking holds about 81,000 sequences; the median of “one-hybrid fitness for binding NBS DNA” is about -0.1, and the highest 2% start at about 0.36. Some of the results follow.

B1: Caulobacter ParB omega fusion; a variant is named by its letters at X, in order, B8GW30 (parent)
chain: MESVVVGEPGMSEGRRGLGRGLSALLGEVDAAPAQAPGEQLGGSREAPIEILQRNPDQPRRTFREEDLEDLSNSIREKGVLQPILVRPSPDTAGEYQIVAGERAWRAAQRAGLKTVPIMVRELDDLAVLEIGIIENVQRADLNVLEEALSYKVLMEKFERTQENIAQTIGKSXSHVANXMRLLXLPDEVQSYLVSGELTAXHARAIAAAADPVALAKQIIEGGLSVRETEALARKAPNLSAGKSKGGRPPRVKDTDTQALESDLSSVLGLDVSIDHRGSTGTLTITYATLEQLDDLCNRLTRGI

Variants of: B1
Test: one-hybrid fitness for binding NBS DNA (the Noc-binding site; scaled: cognate 1, non-cognate 0); higher = stronger binding
Settings: with NBS DNA site
Outline: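 Caulobacter ParB libraries with four specificity codons randomised were screened by bacterial one-hybrid selection in the E. coli USO strain, using a HIS3 reporter whose site lies 19 bp from the promoter. Selection ran for 48 hours at 37°C on M9 lacking histidine, with 0.1 mM IPTG and 5 mM 3-AT. Plasmids were Illumina-sequenced before and after selection, three replicate libraries were pooled, and variants with under 10 reads were dropped. Fitness is the log change in each variant's read ratio to wild type, rescaled against the cognate and non-cognate sites.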

Variant	one-hybrid fitness for binding NBS DNA
LRMH	≤ 0.2
GCLS	≤ 0.2
AHKG	≤ 0.2
GLNA	≤ 0.2
TNLK	≤ 0.2
KITT	≤ 0.2
QSWR	0.365
QRRV	0.574
GQKS	≤ 0.2
KQRY	≤ 0.2
VQTN	≤ 0.2
WIYT	≤ 0.2
FFRM	≤ 0.2
LPCT	≤ 0.2
ITSG	≤ 0.2
WVYS	≤ 0.2
WLLV	≤ 0.2
TAKH	≤ 0.2
TTTR	≤ 0.2
YVNR	≤ 0.2
CRFK	≤ 0.2
VMHR	≤ 0.2
DYQV	≤ 0.2
HKHS	≤ 0.2

Variant	one-hybrid fitness for binding NBS DNA
MNGC	≤ 0.2
AKSE	≤ 0.2
SLKY	≤ 0.2
YLHC	≤ 0.2
LHGR	≤ 0.2
ACYS	≤ 0.2
RAFV	≤ 0.2
PTDR	≤ 0.2
SFKS	≤ 0.2
QIDW	≤ 0.2
CCDG	≤ 0.2
HLSS	≤ 0.2
VVEW	≤ 0.2
SATW	≤ 0.2
SLVT	≤ 0.2
PFQC	≤ 0.2
VLWC	≤ 0.2
AGDT	≤ 0.2
SSGE	≤ 0.2
LMEK	≤ 0.2
KRNV	≤ 0.2
WCRG	≤ 0.2
QSCI	≤ 0.2
ANRC	≤ 0.2

Variant	one-hybrid fitness for binding NBS DNA
RLPL	≤ 0.2
RFQA	≤ 0.2
LDTR	≤ 0.2
TMSA	≤ 0.2
RKLE	≤ 0.2
HQSH	≤ 0.2
AWCR	≤ 0.2
DNTH	≤ 0.2
EVAA	≤ 0.2
LKAL	≤ 0.2
PPMR	≤ 0.2
HQSV	≤ 0.2
VLDG	≤ 0.2
EWNT	≤ 0.2
GRIA	≤ 0.2
PNSY	≤ 0.2
PPAY	≤ 0.2
SHFW	≤ 0.2
VRNH	≤ 0.2
LFHL	≤ 0.2
GHYS	≤ 0.2
SVPK	≤ 0.2
QHFT	0.312
LWNC	≤ 0.2

Variant	one-hybrid fitness for binding NBS DNA
QFNA	≤ 0.2
YEDG	≤ 0.2
YTIY	≤ 0.2
PWGA	≤ 0.2
PAGH	≤ 0.2
HNQR	≤ 0.2
PVVL	≤ 0.2
TQSV	≤ 0.2
TSHW	≤ 0.2
TSVC	≤ 0.2
CRGD	≤ 0.2
NWIC	≤ 0.2
LCPA	≤ 0.2
VAPQ	≤ 0.2
SSGS	≤ 0.2
RWTH	≤ 0.2
SDAC	≤ 0.2
YQWG	≤ 0.2
WGLC	≤ 0.2
NLGM	≤ 0.2
YTWF	≤ 0.2
RYAD	≤ 0.2
MGGQ	≤ 0.2
IRKH	0.257

Variant	one-hybrid fitness for binding NBS DNA
KSWV	≤ 0.2
QAYR	0.464
HLVA	≤ 0.2
HGKV	≤ 0.2
LCKK	≤ 0.2
ACYG	≤ 0.2
KWTI	≤ 0.2
CFDS	≤ 0.2
CICR	≤ 0.2
AKRA	≤ 0.2
PLSP	≤ 0.2
TNWG	≤ 0.2
PLAW	≤ 0.2
PLDW	≤ 0.2
ELCC	≤ 0.2
RRLE	≤ 0.2
TAAF	≤ 0.2
THLG	≤ 0.2
PGSV	≤ 0.2
WRST	≤ 0.2
HRGF	≤ 0.2
YYLG	≤ 0.2
KENR	≤ 0.2
REGT	≤ 0.2

Variant	one-hybrid fitness for binding NBS DNA
RRNW	≤ 0.2
LTGY	≤ 0.2
SQTF	≤ 0.2
SNCT	≤ 0.2
LQNG	≤ 0.2
LVDR	≤ 0.2
HPHM	≤ 0.2
LIGT	≤ 0.2
QWIA	≤ 0.2
REPP	≤ 0.2
VQTC	≤ 0.2
GDVC	≤ 0.2
FNLR	≤ 0.2
VLVV	≤ 0.2
TFIW	≤ 0.2
MHTH	≤ 0.2
TTRD	≤ 0.2
RHRA	0.325
RFVD	≤ 0.2
EVPT	≤ 0.2
QCQF	≤ 0.2
LHYT	≤ 0.2
GQTK	≤ 0.2
SPSC	≤ 0.2

Variant	one-hybrid fitness for binding NBS DNA
RHWC	≤ 0.2
SLQC	≤ 0.2
NWGC	≤ 0.2
RKNP	≤ 0.2
KPCG	≤ 0.2
ENFG	≤ 0.2
IHMG	≤ 0.2
WVVR	≤ 0.2
FAKY	≤ 0.2
NIHY	≤ 0.2
LATL	≤ 0.2
VWPM	≤ 0.2
QLAA	≤ 0.2
YWQT	≤ 0.2
QFPN	≤ 0.2
QQAI	≤ 0.2
LQAT	≤ 0.2
IGLK	≤ 0.2
RHFM	≤ 0.2
RCTY	≤ 0.2
QSCF	≤ 0.2
SRRI	≤ 0.2
TAVH	≤ 0.2
HSQS	≤ 0.2

Variant	one-hybrid fitness for binding NBS DNA
NSYH	≤ 0.2
NKGS	≤ 0.2
HTCC	≤ 0.2
QCVV	≤ 0.2
YETR	≤ 0.2
RVCL	≤ 0.2
RVDN	≤ 0.2
RCNY	0.221
ANKS	≤ 0.2
ILSF	≤ 0.2
LLLE	≤ 0.2
LDHI	≤ 0.2
RQSC	≤ 0.2
CCCS	≤ 0.2
PSYD	≤ 0.2
SGIH	≤ 0.2
QQNG	≤ 0.2
RYKL	≤ 0.2
RIIR	≤ 0.2
MNRV	≤ 0.2
AHWD	≤ 0.2
NRYN	≤ 0.2
GDWR	≤ 0.2
TISV	≤ 0.2

Variant	one-hybrid fitness for binding NBS DNA
ADNH	≤ 0.2
IYVS	≤ 0.2
ETQI	≤ 0.2
CTPR	≤ 0.2
IWMS	≤ 0.2
CPPY	≤ 0.2
RRII	≤ 0.2
CVTW	≤ 0.2
QSTD	≤ 0.2
FTYG	≤ 0.2
WLAY	≤ 0.2
GTED	≤ 0.2
PQFR	≤ 0.2
VREI	≤ 0.2
WGKR	≤ 0.2
PAGC	≤ 0.2
FLDR	≤ 0.2
YMCG	≤ 0.2
SLKN	≤ 0.2
LVTL	≤ 0.2
QQAE	≤ 0.2
AWAT	≤ 0.2
SLRC	≤ 0.2
CCVV	≤ 0.2

Variant	one-hybrid fitness for binding NBS DNA
CVDK	≤ 0.2
APLS	≤ 0.2
DLRV	≤ 0.2
WRSS	≤ 0.2
SNGG	≤ 0.2
NEKN	≤ 0.2
KRRL	≤ 0.2
TRYL	≤ 0.2
LQPM	≤ 0.2
FAAG	≤ 0.2
QLQT	0.37
VDLA	≤ 0.2
QPHG	≤ 0.2
RITQ	≤ 0.2
VGSI	≤ 0.2
WTLC	≤ 0.2
RIPH	≤ 0.2
LCYC	≤ 0.2
YKPL	≤ 0.2
LVAW	≤ 0.2
PPKC	≤ 0.2
CEPV	≤ 0.2
SAYD	≤ 0.2
SGYV	≤ 0.2

Variant	one-hybrid fitness for binding NBS DNA
RTLY	≤ 0.2
PYTD	≤ 0.2
RVPG	≤ 0.2
RKNW	≤ 0.2
VMNS	≤ 0.2
NPIC	≤ 0.2
ARAM	≤ 0.2
RMHP	≤ 0.2
LVWL	≤ 0.2
DPAF	≤ 0.2
DTSI	≤ 0.2
HCLM	≤ 0.2
NQES	≤ 0.2
ESCT	≤ 0.2
WFCG	≤ 0.2
YILR	≤ 0.2
LFGC	≤ 0.2
WGNT	≤ 0.2
QADD	≤ 0.2
QCVW	≤ 0.2
VEQT	≤ 0.2
PKVT	≤ 0.2
THKY	≤ 0.2
KAQD	≤ 0.2

Variant	one-hybrid fitness for binding NBS DNA
TMMR	≤ 0.2
TWAG	≤ 0.2
VQHA	≤ 0.2
SESE	≤ 0.2
VAAT	≤ 0.2
SMKR	≤ 0.2
SAMV	≤ 0.2
SRYC	≤ 0.2
LGSK	≤ 0.2
RLMG	≤ 0.2
EPTL	≤ 0.2
RISM	≤ 0.2
HHLS	≤ 0.2
RTLH	≤ 0.2
AQKS	≤ 0.2
RFLC	≤ 0.2
QTLP	≤ 0.2
SHCY	≤ 0.2
LPAD	≤ 0.2
RFTM	≤ 0.2
RENK	≤ 0.2
ARKI	≤ 0.2
RKSD	≤ 0.2
YPMS	≤ 0.2

Variant	one-hybrid fitness for binding NBS DNA
QWPS	≤ 0.2
VPPT	≤ 0.2
GAMS	≤ 0.2
DNLT	≤ 0.2
TQCH	≤ 0.2
YRMR	≤ 0.2
VIIV	≤ 0.2
AENC	≤ 0.2
TCPS	≤ 0.2
ELTM	≤ 0.2
SMHV	≤ 0.2
SKCF	≤ 0.2
CYSV	≤ 0.2
GTSR	≤ 0.2
TTYN	≤ 0.2
HCLE	≤ 0.2
TACM	≤ 0.2
SFPN	≤ 0.2
